Reference: the supplement of paper PMC3334620
In all, about 33,000 sequences were measured (“E-score (-0.5 to 0.5)”: median about -0.021, highest 2% from about 0.32 on). Some of the results follow.

Target: T1, Zap1 (UniProt P47043)
T1 sequence: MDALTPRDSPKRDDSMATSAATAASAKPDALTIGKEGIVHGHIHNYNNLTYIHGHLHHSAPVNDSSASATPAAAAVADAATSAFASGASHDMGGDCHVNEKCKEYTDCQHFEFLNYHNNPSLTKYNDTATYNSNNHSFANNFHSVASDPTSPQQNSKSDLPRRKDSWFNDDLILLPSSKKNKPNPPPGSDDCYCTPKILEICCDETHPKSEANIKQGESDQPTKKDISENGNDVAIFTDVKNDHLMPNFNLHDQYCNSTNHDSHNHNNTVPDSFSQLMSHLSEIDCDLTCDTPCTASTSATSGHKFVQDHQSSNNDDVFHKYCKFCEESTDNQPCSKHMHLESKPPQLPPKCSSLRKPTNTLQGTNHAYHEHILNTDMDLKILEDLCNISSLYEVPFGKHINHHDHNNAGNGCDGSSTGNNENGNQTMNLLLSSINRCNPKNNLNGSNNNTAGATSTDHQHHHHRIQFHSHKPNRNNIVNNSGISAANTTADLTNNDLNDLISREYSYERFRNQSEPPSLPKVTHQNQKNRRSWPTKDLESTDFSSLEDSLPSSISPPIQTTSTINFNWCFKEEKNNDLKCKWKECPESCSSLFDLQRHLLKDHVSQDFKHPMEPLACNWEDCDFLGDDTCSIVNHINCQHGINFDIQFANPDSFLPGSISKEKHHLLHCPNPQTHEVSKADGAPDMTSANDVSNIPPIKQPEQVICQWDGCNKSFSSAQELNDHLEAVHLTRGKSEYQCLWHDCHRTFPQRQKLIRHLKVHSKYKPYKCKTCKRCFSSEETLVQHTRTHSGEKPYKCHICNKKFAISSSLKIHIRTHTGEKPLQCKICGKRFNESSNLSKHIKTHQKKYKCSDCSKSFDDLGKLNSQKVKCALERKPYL
Assay: PBM E-score (8-mer binding enrichment) (E-score (-0.5 to 0.5)); higher = stronger / more preferred TF binding; most listed sequences are background and not binding sites
Settings: protein concentration: 200 nM; construct: GST-full length
Summary of the method: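 For each ungapped eight-base word taken together with its reverse complement, the Universal PBM Analysis Suite assigned an E-score. Binding data came from GST-tagged yeast transcription factors, applied at about 100-200 nM, on universal all-10-mer Agilent arrays made double-stranded by primer extension. Fluorescent anti-GST marked bound protein, and scans were normalised with masliner.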

Row | Sequence | PBM E-score
1 | CAGCCGGC | 0.0305
2 | CAGGGTAC | 0.437
3 | AACCCGAT | 0.31
4 | GGGAGTGA | -0.156
5 | AGAAGGCT | -0.308
6 | CAGCGCTA | -0.119
7 | TACGGTAA | 0.256
8 | CCTGACCC | 0.29
9 | CTAACCAA | 0.262
10 | CCTCGAAG | 0.185
11 | ATAAAGTC | 0.0837
12 | AGGTTATA | 0.469
13 | GGCTTCAA | -0.058
14 | CCGTAGTA | -0.0622
15 | ATACTGAT | 0.121
16 | GCTGAACA | 0.149
17 | CCGAACAC | 0.15
18 | GTAGTCAA | -0.0319
19 | AAGTATGA | -0.0263
20 | AAGTGTTC | -0.00496
21 | CGGGAACC | -0.00143
22 | ATTGCTAC | -0.0268
23 | AAGAGAAT | -0.0743
24 | GTGTAACA | 0.0444
25 | TCGTAAGA | -0.0388

Row | Sequence | PBM E-score
26 | AGTTAAAA | 0.247
27 | GCCCCTAC | -0.0823
28 | GGATAGCC | -0.12
29 | ACAAGGTA | 0.277
30 | AATAGCGC | -0.0844
31 | AAAGGACC | 0.111
32 | CTCTGAGC | -0.135
33 | GGTCCACA | -0.126
34 | AACACTCG | 0.0851
35 | CTACTGGC | -0.244
36 | CTGGCCCC | -0.0927
37 | CTCCAGCA | -0.176
38 | ATGACCAA | 0.211
39 | AATGTGAT | 0.0415
40 | GTCATGAA | 0.231
41 | AAGATCGA | 0.0527
42 | CTCGTCCA | -0.09
43 | AGGGTGTA | 0.262
44 | AGCGCACC | -0.143
45 | GTCGACCA | 0.0364
46 | GATTCACC | -0.0698
47 | ACGGTCGC | 0.00876
48 | AGGCTACT | -0.135
49 | AAATGAGG | -0.092
50 | ATGTCGAC | 0.027

Row | Sequence | PBM E-score
51 | GCCTCGCC | -0.192
52 | GTATATAC | 0.074
53 | AAACTCCG | -0.0502
54 | ACCTTTAA | 0.383
55 | TCGACGCA | -0.0587
56 | CATTAAGC | 0.0153
57 | CTGTCATC | -0.138
58 | GCGGGCTA | -0.198
59 | AAACCCCG | 0.198
60 | GATTACTA | 0.09
61 | CCGTACTA | 0.163
62 | ACGAGCAT | -0.24
63 | CCAGGGTA | 0.323
64 | CACTAGCG | -0.00843
65 | CTTTGGAC | 0.203
66 | CAAGCCTA | -0.188
67 | ATTCTCGG | 0.0582
68 | TCCCGAGA | -0.103
69 | GCACAAGA | 0.0218
70 | AGCTTTCG | -0.205
71 | CAAGGTCC | 0.151
72 | ACCAACGA | 0.0812
73 | GTCACCAC | 0.218
74 | TATCCCAA | 0.0555
75 | ACGTTACG | 0.0601

Row | Sequence | PBM E-score
76 | GTAACCCA | 0.468
77 | AGACTTAG | -0.306
78 | ACGACACG | 0.031
79 | ACTAAGAA | 0.0402
80 | AGGAACAA | 0.00761
81 | TACATTGA | -0.0148
82 | AGTTCGGC | 0.0158
83 | TATGAGGA | -0.191
84 | CCCACTCA | -0.134
85 | CATCGTAG | -0.237
86 | CCTAGTTA | 0.194
87 | ACGCTTAC | -0.151
88 | GGACCAAA | 0.0834
89 | ACGAGTCC | -0.0454
90 | GGCCATAC | 0.0189
91 | ATTGTAGC | -0.0857
92 | CATATCAC | -0.057
93 | AGGTATCA | 0.116
94 | ATCTATCC | -0.046
95 | GGTCTTGA | 0.11
96 | CTGCTATC | 0.0299
97 | CTGAGGAA | -0.0614
98 | AGGGTTAA | 0.461
99 | AATTCGGG | -0.0414
100 | AAAGCCAG | -0.201

Row | Sequence | PBM E-score
101 | ACAGAATG | -0.139
102 | ACATTTGC | -0.00108
103 | AAAACGCA | 0.107
104 | ACAACCCG | 0.398
105 | GGCCGCTA | 0.0408
106 | ATAGTATC | 0.0394
107 | AATGGACC | 0.179
108 | ACCTGATG | 0.201
109 | AGCAAGTA | -0.0454
110 | CATGACAA | -0.0635
111 | GAGAATAC | 0.0319
112 | CCCCGTCC | -0.323
113 | AAGCCGCG | 0.0642
114 | CCGCATGA | 0.114
115 | ACGCCATA | -0.104
116 | CCTCTAGC | -0.107
117 | CAGCCAGG | -0.267
118 | ATACCCAT | 0.128
119 | CTTTGTAC | 0.0143
120 | AACACGTG | 0.0559
121 | GGTCTTAA | 0.148
122 | ACTGCCAG | -0.0642
123 | CTAGGCCA | -0.0744
124 | TCTTGAAA | 0.295
125 | TGACTTAA | 0.0206

Row | Sequence | PBM E-score
126 | ACACAAGC | 0.0416
127 | CGAATCCC | -0.196
128 | ACACTACT | 0.0202
129 | AAATTCAA | 0.0186
130 | CATCCTAA | 0.0763
131 | GGCCAAAA | 0.139
132 | AGATGCGG | 0.0772
133 | CATAACAC | 0.19
134 | CACCATAG | 0.132
135 | CCAACCTA | 0.115
136 | ACGACACC | 0.0752
137 | CATGCAAA | -0.102
138 | CATCTCAG | -0.08
139 | CAGCTGCG | -0.251
140 | ACCGTAGA | 0.0259
141 | GTACTTCA | 0.215
142 | ACGCGGAA | 0.061
143 | AACCACCG | 0.227
144 | CTATCGAA | -0.177
145 | CATCATCA | -0.0606
146 | GACATTTA | -0.148
147 | AGCACTCA | -0.0177
148 | CGTACACG | -0.0742
149 | AAGGGCGG | 0.11
150 | AAAGAAGA | -0.153

Row | Sequence | PBM E-score
151 | ACGGTGGC | -0.0481
152 | CGTTGGAC | -0.17
153 | CCGGTATC | 0.0178
154 | AACGCAGG | -0.0973
155 | ACCCGGTG | 0.195
156 | ACGATGAA | 0.0365
157 | CAAATGGC | -0.0735
158 | CGACGAAA | 0.0374
159 | AATTCCAT | -0.0827
160 | CGGTCTGC | -0.00624
161 | ATTGTCCC | 0.0063
162 | GATAACCC | 0.47
163 | GACTTGGA | -0.3
164 | AACTTTAG | 0.116
165 | AATACACG | -0.0282
166 | AGCCCTCC | -0.18
167 | CGAGGCGA | -0.0393
168 | AGTTACGA | 0.226
169 | CGACATGC | -0.133
170 | AGGCGGAC | -0.157
171 | GCTGAAGC | -0.138
172 | CTCTCTTC | -0.249
173 | AAGCTCAA | -0.127
174 | AGCGAGCG | -0.109
175 | GATATTAA | 0.0346

Row | Sequence | PBM E-score
176 | GATCTTAC | -0.146
177 | CTTCAAGA | 0.186
178 | GACACGTC | -0.278
179 | AGGCTTCG | 0.021
180 | ACGCTCCG | -0.196
181 | GATCTTAA | 0.0896
182 | GCACGCGC | -0.113
183 | ACGAGATC | -0.172
184 | ACTGGGCT | -0.162
185 | GTTAAGGA | 0.191
186 | AGTAATTG | 0.0247
187 | CTTGCCTA | -0.167
188 | AGACTGAC | -0.202
189 | ATGTATAG | -0.101
190 | AGTTCGTC | 0.0507
191 | CACCGGCA | 0.0433
192 | CTGCGTCA | -0.0274
193 | CGCGTCCC | 0.00695
194 | ATTGCCTA | -0.209
195 | AGTGCCTA | -0.152
196 | ACTGCGAG | -0.164
197 | AATTTGGG | 0.146
198 | ATCCCAAT | -0.0767
199 | AGAGCGCA | -0.324
200 | AACTCGAC | 0.0727

Row | Sequence | PBM E-score
201 | AGTCAATC | -0.07
202 | AAGAGGGT | 0.213
203 | ACAACTGT | 0.0855
204 | CTAGCATC | -0.121
205 | CGGGACGC | -0.133
206 | AAGAGCTC | -0.272
207 | ACCCGATC | 0.0875
208 | CACCTAGG | -0.0336
209 | AAGTGCAG | -0.156
210 | CTCTCTAA | -0.191
211 | CTGAGCCC | -0.179
212 | ATCTCCTA | -0.257
213 | AGGTCTCC | 0.00142
214 | CAATAGAA | -0.187
215 | ACTACACC | -0.0133
216 | ACGTGCAC | -0.164
217 | GCCTGAGC | -0.178
218 | ACTACGGG | 0.0981
219 | GTGGCAAA | 0.0924
